Test results as given in PubChem BioAssay AID1347165 (National Center for Advancing Translational Sciences (NCATS), 2019).
Among all 220,000 compounds or so, about 5,700 (2.6%) were called active. Inconclusive means that the source gave no clear call. Such entries were picked first, then a sample of the others. Calls follow the shape of the dose curve; as a rule, active = well fitted inhibition curve with a large enough effect; inconclusive = small, poorly fitted or top-dose-only effect; inactive = no such curve, though single readings can be large or run the other way. Potencies of inconclusive entries are doubtful fits and often do not repeat.
Also: nearly all actives have a fitted effect of over 70% in size.
For activity change, negative = inhibition in this document: 0% is about no effect.
Potency is read from the fitted curve at half-maximal effect; tags tell the direction and shape of the fitted curve.

What follows are compounds tested against Lysine-specific demethylase 5B (Homo sapiens) (UniProt Q9UGL1) (assay: Primary screen for KDM5B Histone Demethylases FDH-coupled qHTS). Conditions: FDH-coupled NADH fluorescence (FDH is formaldehyde dehydrogenase); activity change, negative = inhibition: at 57.7 µM (top of the series) unless noted.
UniProt Q9UGL1, sequence (Q9UGL1 whole entry, looked up): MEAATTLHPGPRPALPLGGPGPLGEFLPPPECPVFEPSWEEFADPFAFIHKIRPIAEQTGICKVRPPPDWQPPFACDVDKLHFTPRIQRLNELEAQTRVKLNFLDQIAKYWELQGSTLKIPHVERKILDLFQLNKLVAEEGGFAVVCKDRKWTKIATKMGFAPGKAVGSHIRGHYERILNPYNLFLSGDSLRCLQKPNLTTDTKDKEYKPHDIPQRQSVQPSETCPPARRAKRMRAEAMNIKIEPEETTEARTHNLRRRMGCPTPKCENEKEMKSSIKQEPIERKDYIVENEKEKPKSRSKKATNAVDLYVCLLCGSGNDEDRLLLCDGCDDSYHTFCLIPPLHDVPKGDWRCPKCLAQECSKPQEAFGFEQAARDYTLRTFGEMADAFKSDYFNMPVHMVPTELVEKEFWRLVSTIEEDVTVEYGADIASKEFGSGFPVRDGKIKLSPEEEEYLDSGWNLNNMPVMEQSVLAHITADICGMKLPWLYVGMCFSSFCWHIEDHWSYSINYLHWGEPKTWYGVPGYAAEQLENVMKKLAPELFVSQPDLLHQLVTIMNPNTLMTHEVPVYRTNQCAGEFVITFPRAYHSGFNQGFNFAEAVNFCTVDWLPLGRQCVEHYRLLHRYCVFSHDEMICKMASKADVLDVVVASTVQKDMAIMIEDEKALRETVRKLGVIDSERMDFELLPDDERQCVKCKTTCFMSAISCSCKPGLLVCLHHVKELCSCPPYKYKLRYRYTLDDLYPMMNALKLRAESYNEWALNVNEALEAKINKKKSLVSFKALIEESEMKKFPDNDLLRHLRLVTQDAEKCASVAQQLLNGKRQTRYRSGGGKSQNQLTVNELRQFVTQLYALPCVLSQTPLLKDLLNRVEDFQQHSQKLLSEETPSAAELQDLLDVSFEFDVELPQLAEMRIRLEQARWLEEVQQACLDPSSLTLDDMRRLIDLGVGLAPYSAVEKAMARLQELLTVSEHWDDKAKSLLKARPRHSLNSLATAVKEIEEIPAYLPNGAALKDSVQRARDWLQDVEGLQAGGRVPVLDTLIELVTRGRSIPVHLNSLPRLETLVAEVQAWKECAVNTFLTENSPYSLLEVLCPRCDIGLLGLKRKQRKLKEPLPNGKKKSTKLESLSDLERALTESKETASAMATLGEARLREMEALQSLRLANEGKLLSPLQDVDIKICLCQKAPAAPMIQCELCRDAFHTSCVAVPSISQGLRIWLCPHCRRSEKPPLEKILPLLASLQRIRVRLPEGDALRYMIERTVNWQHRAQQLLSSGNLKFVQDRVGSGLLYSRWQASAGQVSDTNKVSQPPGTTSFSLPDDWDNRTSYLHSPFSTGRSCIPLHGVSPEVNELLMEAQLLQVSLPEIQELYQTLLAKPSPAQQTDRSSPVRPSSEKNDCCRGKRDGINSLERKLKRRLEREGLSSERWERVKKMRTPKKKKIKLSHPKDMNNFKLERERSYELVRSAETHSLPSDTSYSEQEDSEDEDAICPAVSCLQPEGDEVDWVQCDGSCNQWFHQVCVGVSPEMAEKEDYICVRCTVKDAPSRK
In short: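 Compound dilutions met 200 nM (final) KDM5BΔAP for 10 min at room temperature before substrate addition. The substrate mix held 12.5 µM H3K4me3 with cofactors 25 µM α-ketoglutarate and 50 µM Fe²⁺. NADH signal gain over 30 min defined activity.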
`C[C@@H](O)[C@H](N)C(=O)N1CCc2onc(-c3cccc4ccccc34)c2C1` was tested, and the Potency was inconclusive: 35.5 µM [inhibitor, partial curve, poor fit].
`CC1CCCC(N2CCN(Cc3ccc(Cl)cc3)CC2)C1` (stereo not drawn) was tested, and the Potency was inconclusive: 8.91 µM [inhibitor, full curve, poor fit].
`CN1[C@@H](CCC(=O)NCc2ccc(F)cc2)CNC(=O)[C@@H]2[C@H]1CCN2Cc1ncc[nH]1` was tested, and the Potency was inconclusive: 12.6 µM [inhibitor, partial curve].
In the case of `CN(C)c1cccc(C(=O)NC2CCCN(c3cc(-c4ccc(F)cc4)[nH]n3)C2)c1` (stereo not drawn), the Potency is reported as inconclusive: 31.6 µM [inhibitor, partial curve, poor fit].
`Cc1nc(C(=O)Nc2nn(Cc3ccccc3)c3cc(OC(C)C)ccc23)c(C)o1` was tested, and the Potency was inconclusive: 39.8 µM [inhibitor, partial curve, poor fit].
For `C=C(C)COc1cc(O)c2c(=O)cc(-c3ccccc3)oc2c1`, the Potency was “inactive”.
For `C=CCOc1cccc(-c2nc(C(=O)N(C)Cc3ccco3)cs2)c1`, the Potency was inconclusive: 28.2 µM [inhibitor, partial curve].
In the case of `COc1ccc(C2=NOC(COc3ccc4c(C)cc(=O)oc4c3)C2)c(OC)c1` (stereo not drawn), the Potency is reported as inconclusive: 31.6 µM [inhibitor, partial curve, poor fit].
In the case of `CCn1nc(CC(C)C)cc1C(=O)N1C[C@@H](NC(C)=O)[C@H](C(C)C)C1`, the Potency is reported as active: 35.5 µM.
With `COc1ccc(NC(=O)c2ccc(C)cc2)c[n+]1[O-]` the Potency was inconclusive: 39.8 µM [inhibitor, single point].
For `Cc1cc(SCC(=O)NC(=O)NC(C)C)nc2ccccc12`, the Potency was “inactive”.
`CCN(Cc1ccccc1)S(=O)(=O)c1ccc(F)c(C(=O)Nc2cc(C(F)(F)F)ccc2Cl)c1` was tested, and the Potency was inconclusive: 28.2 µM [inhibitor, partial curve, poor fit].
`O=C(c1scc2c1OCCO2)N1CCC2(CC1)c1ccccc1CC2O` (stereo not drawn) was tested, and the Potency was “inactive”.
With `COc1cccc(C(=O)NCc2nnc3c(-c4nc(C)no4)cccn23)c1` the Potency was active: 28.2 µM.
In the case of `Cc1cc(-n2cccc2)ccc1Br`, the Potency is reported as “inactive”.
`CCOC(=O)C1CCCN(C(=O)CC(c2cccc([N+](=O)[O-])c2)c2c[nH]c3c(CC)cccc23)C1` (stereo not drawn) was tested, and the Potency was inconclusive: 15.8 µM [inhibitor, partial curve].
`COC(=O)Cc1c(C)nc2nc(-c3ccc(C)cc3)[nH]n2c1=O` was tested, and the Potency was inconclusive: 3.98 µM [inhibitor, full curve, poor fit].
`COc1ccc(OC)c(NC(=O)c2ccc3c(c2)N(S(=O)(=O)c2ccccc2)CC3)c1` was tested, and the Potency was inconclusive: 25.1 µM [inhibitor, partial curve, poor fit].
`CCc1cccc2c(C(=O)C(F)(F)F)cn(CCOc3ccccc3F)c12` was tested, and the Potency was inconclusive: 31.6 µM [inhibitor, partial curve, poor fit].
For `Cc1ccc(C(=O)OC2CCOC2=O)s1` (stereo not drawn), the Potency was “inactive”.
In the case of `COc1ccccc1-c1nnc([C@H]2CCN(Cc3ccccn3)C2)o1`, the Potency is reported as inconclusive: 39.8 µM [inhibitor, partial curve, poor fit].
For `CCC(C)(C)C1CCC(NC(=O)CNC(=O)CNC(C)=O)CC1` (stereo not drawn), the Potency was “inactive”.
With `C[S+](=O)([O-])N1CC2(CCCN(Cc3ccc(Cl)cc3)C2)Cc2ccccc21` (stereo not drawn) the Potency was “inactive”.
In the case of `Cc1ccc(C(=O)N2CCn3c(nnc3-c3ccccc3)C2)cc1`, the Potency is reported as “inactive”.
In the case of `Cc1ccc(CN2CCC3(CC2)CC(C(=O)N2CCOCC2)N(C)C3)s1` (stereo not drawn), the Potency is reported as inconclusive: 28.2 µM [inhibitor, partial curve, poor fit].
`CC(C)(CNC(=O)Nc1nccs1)N1CCc2ccccc2C1` was tested, and the Potency was inconclusive: 20 µM [inhibitor, single point].
In the case of `Cc1ccc(Cl)cc1N1CCN(c2nc3ccccc3c3nc(-c4cccnc4)nn23)CC1`, the activity change, negative = inhibition is reported as inconclusive: -31.5% [inhibitor].
For `COc1ccc(-n2nc(C(=O)NCC(=O)NCc3ccc(F)cc3)c3ccccc3c2=O)cc1`, the Potency was inconclusive: 39.8 µM [inhibitor, single point].
With `N#Cc1cccnc1NCCNc1cnc2ccccc2n1` the Potency was inconclusive: 31.6 µM [inhibitor, single point].
`CCn1c2ccccc2c2cc(CN3CCN(Cc4cccc(Cl)c4)CC3)ccc21` was tested, and the Potency was inconclusive: 14.1 µM [inhibitor, partial curve, poor fit].
For `CCOc1ccccc1CNC(=O)c1ccc(-n2c(C)cc3c2CCC(C)C3)cc1` (stereo not drawn), the Potency was inconclusive: 15.8 µM [inhibitor, partial curve, poor fit].
`c1ccn2c(Nc3ccc4c(c3)OCCO4)c(-c3ccsc3)nc2c1` was tested, and the Potency was inconclusive: 20 µM [inhibitor, partial curve, poor fit].
`CCn1nc(C(=O)Nc2cccc(C(=O)Nc3ccncc3)c2)c2ccccc2c1=O` was tested, and the Potency was “inactive”.
In the case of `N#C/C(=C/c1ccccc1OCC(=O)O)C(=O)Nc1ccc(N2CCOCC2)cc1`, the Potency is reported as “inactive”.
For `COCCn1c(CO)nnc1C1CC(NC(=O)c2cn3ccsc3n2)C1` (stereo not drawn), the Potency was “inactive”.
With `CCC1Oc2ccc(NC(=O)c3ccccc3)cc2CN(Cc2ccc(OC)cc2)C1=O` (stereo not drawn) the Potency was inconclusive: 31.6 µM [inhibitor, partial curve, poor fit].
With `N#C/C(=C/c1ccc(OC(F)F)cc1)C(N)=S` the Potency was inconclusive: 22.4 µM [inhibitor, partial curve, poor fit].
`COc1ccccc1OCCNC(=O)c1ccc2c(c1)N(C)C1CCCCN1C2=O` (stereo not drawn) was tested, and the Potency was inconclusive: 17.8 µM [inhibitor, partial curve, poor fit].
With `COc1ccc(C(=O)N2CCC3(CC2)N=C(c2cccc(Br)c2)NO3)c(OC)c1` the Potency was inconclusive: 22.4 µM [inhibitor, partial curve].
In the case of `CCOc1ccccc1NC(=O)N1CCC[C@H]1C(=O)N1CCCCCCNC(=O)CC1`, the Potency is reported as “inactive”.
With `CCNC(=O)O[C@@H]1CO[C@H]2[C@@H]1OC[C@@H]2NC(=S)Nc1cccc2ccccc12` the Potency was inconclusive: 31.6 µM [inhibitor, single point].
`O=C1CN(Cc2ccc(-c3cc(F)cc(F)c3)cc2)CCN1c1cc(Cl)ncn1` was tested, and the Potency was inconclusive: 28.2 µM [inhibitor, partial curve, poor fit].
`O=[S+]([O-])(Nc1ccccc1)c1ccc2c(c1)OCCN(Cc1ccncc1)C2` was tested, and the Potency was inconclusive: 39.8 µM [inhibitor, single point].
For `Cn1cc(-c2cccc(CCOc3cnc4c(ccn4CC(=O)O)c3)c2)cn1`, the Potency was active: 39.8 µM.
For `CCN(C(=O)c1ccc(F)cc1I)C1CC1`, the Potency was “inactive”.
In the case of `CS(=O)(=O)N1CCC(C2CCN(CC3CC3)C2)CC1` (stereo not drawn), the Potency is reported as inconclusive: 22.4 µM [inhibitor, single point].
With `Cn1cc(-c2cn(C)c(=O)n3cc(COc4ccc(Cl)cc4)nc23)cn1` the Potency was “inactive”.
With `CC(=O)NNc1ncnc2c1cnn2-c1ccccc1` the Potency was inconclusive: 25.1 µM [inhibitor, partial curve, poor fit].
In the case of `COc1ccc(-c2onc(C)c2C(=O)NCc2ccc3c(c2)OCO3)cc1`, the Potency is reported as “inactive”.
`CCOc1cccc(/C=C(/C#N)c2ccccn2)c1OC(F)F` was tested, and the Potency was “inactive”.
`COc1ccccc1NC(=O)c1ncoc1-c1ccc(OC)c(OC)c1` was tested, and the Potency was inconclusive: 28.2 µM [inhibitor, single point].
With `Cc1cn2nc(C(=O)N3CCC(NC(=O)c4ccoc4)CC3)cc2c(=O)[nH]1` the Potency was inconclusive: 39.8 µM [inhibitor, partial curve, poor fit].
`CC(C)NC(=O)C1CCCN1c1nc2ncccc2o1` (stereo not drawn) was tested, and the Potency was “inactive”.
With `O=c1cc(-c2ccncc2)oc2c(-c3cccc(O)c3)nccc12` the Potency was inconclusive: 28.2 µM [inhibitor, partial curve].
In the case of `CC(C)CN(CC(C)C)C(=O)c1cc2c(=O)n3ccccc3nc2s1`, the Potency is reported as inconclusive: 28.2 µM [inhibitor, partial curve, poor fit].
`COc1ccc(NC(=O)C(c2ccccc2)N(C)C(=O)/C=C\c2ccc3c(c2)OCO3)cc1` (stereo not drawn) was tested, and the Potency was inconclusive: 22.4 µM [inhibitor, partial curve, poor fit].
In the case of `Cc1cn2c(=O)c(S(=O)(=O)Nc3ccc(OC(F)(F)F)cc3)c(C)nc2s1`, the Potency is reported as inconclusive: 1.58 µM [inhibitor, partial curve, poor fit].
In the case of `O=C1NC2(CCN(C(=O)c3ccc4c(c3)OCO4)C2)OCc2ccccc21` (stereo not drawn), the Potency is reported as “inactive”.
In the case of `Cc1ccccc1NC(NC(=O)c1ccccc1C)C(Cl)(Cl)Cl` (stereo not drawn), the Potency is reported as “inactive”.
In the case of `Cc1ccc(CCC(=O)Nc2cnc3ccccc3c2)cc1`, the Potency is reported as “inactive”.
With `COc1c(Cl)cc(C(N)=O)cc1Cl` the Potency was “inactive”.
With `CC(=O)c1cccc(NS(=O)(=O)c2ccc3[nH]c4c(c3c2)CCCCC4)c1` the Potency was inconclusive: 31.6 µM [inhibitor, single point].
For `CCN1CCN(C(c2ccccc2)c2c(O)cc(C)n(CC)c2=O)CC1` (stereo not drawn), the Potency was “inactive”.
In the case of `COc1ccccc1CC(=O)Nc1ccc2nc(Nc3cccc(C(F)(F)F)c3)cc(C)c2c1`, the Potency is reported as inconclusive: 17.8 µM [inhibitor, partial curve, poor fit].
`Cc1nc2ncccn2c1C(=O)N[C@H]1[C@H]2CCO[C@H]2[C@@H]1N(C)C` was tested, and the Potency was active: 31.6 µM.
For `CC(C)(C)c1nc(C(=O)NCc2ccc(F)cc2)n2ccccc12`, the Potency was active: 89.1 µM.
With `CN(C(=O)CN1CCN(c2oc(-c3ccco3)nc2C#N)CC1)c1ccccc1` the Potency was inconclusive: 20 µM [inhibitor, partial curve, poor fit].
`N#Cc1c(SCC(=O)Nc2ccc(Cl)cc2Cl)nc(N2CCOCC2)c2c1CCCC2` was tested, and the Potency was inconclusive: 12.6 µM [inhibitor, partial curve, poor fit].
